Article PMC9911399, “Two distinct binding modes provide the RNA-binding protein RbFox with extraordinary sequence specificity”
Where a chain is given by its changes, count along the chain named. The list shows a part of the results.

T1: RBFOX1 RRM RbFoxmut (Fox-RRM*) (Homo sapiens, UniProt Q9NWB1 109-208, R118D;E147R;N151S;E152T)
T1 sequence: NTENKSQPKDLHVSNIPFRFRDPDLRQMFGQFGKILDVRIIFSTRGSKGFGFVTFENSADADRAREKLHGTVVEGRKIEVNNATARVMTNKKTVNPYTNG

B1: AUCACAC (DNA:RNA)
RNA: GGGAGACCGGAAUUCAGAUUGUCCAUCACACUUAAAUCCCGUCGUAGCCACCA
DNA 1: CAATCTGAATTCCGGTCTCCC
DNA 2: TGGTGGCTACGACGGGATT
B2: GGAGUUA (DNA:RNA)
RNA: GGGAGACCGGAAUUCAGAUUGUCCGGAGUUAUUAAAUCCCGUCGUAGCCACCA
DNA 1: CAATCTGAATTCCGGTCTCCC
DNA 2: TGGTGGCTACGACGGGATT
B3: GCUCUCC (DNA:RNA)
RNA: B2 RNA with G26C, A27U, G28C, U30C, A31C
DNA 1: CAATCTGAATTCCGGTCTCCC
DNA 2: TGGTGGCTACGACGGGATT
B4: GAGGUGC (DNA:RNA)
RNA: B2 RNA with G26A, A27G, U30G, A31C
DNA 1: CAATCTGAATTCCGGTCTCCC
DNA 2: TGGTGGCTACGACGGGATT
B5: AUGCCAG (DNA:RNA)
RNA: B1 RNA with C27G, A28C, C31G
DNA 1: CAATCTGAATTCCGGTCTCCC
DNA 2: TGGTGGCTACGACGGGATT
B6: GAUAGAA (DNA:RNA)
RNA: B1 RNA with A25G, U26A, C27U, C29G, C31A
DNA 1: CAATCTGAATTCCGGTCTCCC
DNA 2: TGGTGGCTACGACGGGATT
B7: UCCGUGC (DNA:RNA)
RNA: B1 RNA with A25U, U26C, A28G, C29U, A30G
DNA 1: CAATCTGAATTCCGGTCTCCC
DNA 2: TGGTGGCTACGACGGGATT
B8: AUUCUCG (DNA:RNA)
RNA: B1 RNA with C27U, A28C, C29U, A30C, C31G
DNA 1: CAATCTGAATTCCGGTCTCCC
DNA 2: TGGTGGCTACGACGGGATT
B9: GGUAGGG (DNA:RNA)
RNA: B2 RNA with A27U, G28A, U29G, U30G, A31G
DNA 1: CAATCTGAATTCCGGTCTCCC
DNA 2: TGGTGGCTACGACGGGATT
B10: AUGGCCG (DNA:RNA)
RNA: B1 RNA with C27G, A28G, A30C, C31G
DNA 1: CAATCTGAATTCCGGTCTCCC
DNA 2: TGGTGGCTACGACGGGATT
B11: CUAUGCU (DNA:RNA)
RNA: B1 RNA with A25C, C27A, A28U, C29G, A30C, C31U
DNA 1: CAATCTGAATTCCGGTCTCCC
DNA 2: TGGTGGCTACGACGGGATT
B12: AUGGACA (DNA:RNA)
RNA: B1 RNA with C27G, A28G, C29A, A30C, C31A
DNA 1: CAATCTGAATTCCGGTCTCCC
DNA 2: TGGTGGCTACGACGGGATT
B13: AUGGUGU (DNA:RNA)
RNA: B1 RNA with C27G, A28G, C29U, A30G, C31U
DNA 1: CAATCTGAATTCCGGTCTCCC
DNA 2: TGGTGGCTACGACGGGATT
B14: UGGUUAA (DNA:RNA)
RNA: B2 RNA with G25U, A27G, G28U, U30A
DNA 1: CAATCTGAATTCCGGTCTCCC
DNA 2: TGGTGGCTACGACGGGATT
B15: UGGAAAC (DNA:RNA)
RNA: B1 RNA with A25U, U26G, C27G, C29A
DNA 1: CAATCTGAATTCCGGTCTCCC
DNA 2: TGGTGGCTACGACGGGATT
B16: GAUCAGC (DNA:RNA)
RNA: B1 RNA with A25G, U26A, C27U, A28C, C29A, A30G
DNA 1: CAATCTGAATTCCGGTCTCCC
DNA 2: TGGTGGCTACGACGGGATT
B17: CGUCAAG (DNA:RNA)
RNA: B1 RNA with A25C, U26G, C27U, A28C, C29A, C31G
DNA 1: CAATCTGAATTCCGGTCTCCC
DNA 2: TGGTGGCTACGACGGGATT
B18: AAUUUGG (DNA:RNA)
RNA: B1 RNA with U26A, C27U, A28U, C29U, A30G, C31G
DNA 1: CAATCTGAATTCCGGTCTCCC
DNA 2: TGGTGGCTACGACGGGATT
B19: CAAGGUU (DNA:RNA)
RNA: B2 RNA with G25C, G26A, U29G, A31U
DNA 1: CAATCTGAATTCCGGTCTCCC
DNA 2: TGGTGGCTACGACGGGATT
B20: CGUCGCC (DNA:RNA)
RNA: B1 RNA with A25C, U26G, C27U, A28C, C29G, A30C
DNA 1: CAATCTGAATTCCGGTCTCCC
DNA 2: TGGTGGCTACGACGGGATT
B21: CAAAAGU (DNA:RNA)
RNA: B1 RNA with A25C, U26A, C27A, C29A, A30G, C31U
DNA 1: CAATCTGAATTCCGGTCTCCC
DNA 2: TGGTGGCTACGACGGGATT
B22: CAAAGGC (DNA:RNA)
RNA: B1 RNA with A25C, U26A, C27A, C29G, A30G
DNA 1: CAATCTGAATTCCGGTCTCCC
DNA 2: TGGTGGCTACGACGGGATT
B23: GUUCGGA (DNA:RNA)
RNA: B2 RNA with G26U, A27U, G28C, U29G, U30G
DNA 1: CAATCTGAATTCCGGTCTCCC
DNA 2: TGGTGGCTACGACGGGATT
B24: CAGUGGG (DNA:RNA)
RNA: GGGAGACCGGAAUUCAGAUUGUCCCAGUGGGUUAAAUCCCGUCGUAGCCACCA
DNA 1: CAATCTGAATTCCGGTCTCCC
DNA 2: TGGTGGCTACGACGGGATT
B25: AGUUAAG (DNA:RNA)
RNA: B1 RNA with U26G, C27U, A28U, C29A, C31G
DNA 1: CAATCTGAATTCCGGTCTCCC
DNA 2: TGGTGGCTACGACGGGATT
B26: ACGACUC (DNA:RNA)
RNA: B1 RNA with U26C, C27G, A30U
DNA 1: CAATCTGAATTCCGGTCTCCC
DNA 2: TGGTGGCTACGACGGGATT
B27: GGGCGUC (DNA:RNA)
RNA: B2 RNA with A27G, G28C, U29G, A31C
DNA 1: CAATCTGAATTCCGGTCTCCC
DNA 2: TGGTGGCTACGACGGGATT
B28: GCAGUAC (DNA:RNA)
RNA: B2 RNA with G26C, U30A, A31C
DNA 1: CAATCTGAATTCCGGTCTCCC
DNA 2: TGGTGGCTACGACGGGATT
B29: UCUUGCA (DNA:RNA)
RNA: B24 RNA with C25U, A26C, G27U, G30C, G31A
DNA 1: CAATCTGAATTCCGGTCTCCC
DNA 2: TGGTGGCTACGACGGGATT
B30: UGGCGCU (DNA:RNA)
RNA: B24 RNA with C25U, A26G, U28C, G30C, G31U
DNA 1: CAATCTGAATTCCGGTCTCCC
DNA 2: TGGTGGCTACGACGGGATT
B31: AGAGUAA (DNA:RNA)
RNA: B2 RNA with G25A, U30A
DNA 1: CAATCTGAATTCCGGTCTCCC
DNA 2: TGGTGGCTACGACGGGATT

Biological target: T1, RBFOX1 RRM RbFoxmut (Fox-RRM*)
Assay: EMSA; HiTS-Eq, 1 nM pool, 10 min; buffer printed only for the single-RNA assays: 10 mM Tris pH 7.5, 150 mM NaCl, 3.4 mM EDTA, 0.001% NP-40, 30 C
Settings: tags: His6 N-terminal (pET28a); label: 5' 32P
Summary of the method: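 Relative association constants, normalised to the cognate motif, were derived by comparing read counts of each RNA species with those of the control reaction. The RNA sequenced was the free fraction, separated by 8% native PAGE after a 10 min equilibration in 50 µL of 1 nM 5′-radiolabelled RNA (7 randomized nucleotides) with increasing concentrations of purified wild-type or mutant RbFox RRM.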

Binder | binding signal
B1 | 0.0973 KA relative to UGCAUGU
B2 | 0.101 KA relative to UGCAUGU
B3 | 0.0322 KA relative to UGCAUGU
B4 | 0.0992 KA relative to UGCAUGU
B5 | 0.11 KA relative to UGCAUGU
B6 | 0.099 KA relative to UGCAUGU
B7 | 0.084 KA relative to UGCAUGU
B8 | 0.0772 KA relative to UGCAUGU
B9 | 0.0522 KA relative to UGCAUGU
B10 | 0.187 KA relative to UGCAUGU
B11 | 0.119 KA relative to UGCAUGU
B12 | 0.0565 KA relative to UGCAUGU
B13 | 0.19 KA relative to UGCAUGU
B14 | 0.112 KA relative to UGCAUGU
B15 | 0.0728 KA relative to UGCAUGU
B16 | 0.103 KA relative to UGCAUGU

Binder | binding signal
B17 | 0.0956 KA relative to UGCAUGU
B18 | 0.0486 KA relative to UGCAUGU
B19 | 0.0803 KA relative to UGCAUGU
B20 | 0.0841 KA relative to UGCAUGU
B21 | 0.0967 KA relative to UGCAUGU
B22 | 0.0684 KA relative to UGCAUGU
B23 | 0.0772 KA relative to UGCAUGU
B24 | 0.0954 KA relative to UGCAUGU
B25 | 0.111 KA relative to UGCAUGU
B26 | 0.063 KA relative to UGCAUGU
B27 | 0.194 KA relative to UGCAUGU
B28 | 0.0672 KA relative to UGCAUGU
B29 | 0.205 KA relative to UGCAUGU
B30 | 0.0925 KA relative to UGCAUGU
B31 | 0.128 KA relative to UGCAUGU
